From PMC11045789 come the findings set out here.

By UniProt entry, the sequences of proteins in these tests, tags left out. Where a name states a change or a piece, a line headed by the entry shows the natural chain unless it says otherwise. Chains listed by the source or under a name are the forms on record and can include a tag or linker. Residues count along the entry.
UniProt Q9QZS3: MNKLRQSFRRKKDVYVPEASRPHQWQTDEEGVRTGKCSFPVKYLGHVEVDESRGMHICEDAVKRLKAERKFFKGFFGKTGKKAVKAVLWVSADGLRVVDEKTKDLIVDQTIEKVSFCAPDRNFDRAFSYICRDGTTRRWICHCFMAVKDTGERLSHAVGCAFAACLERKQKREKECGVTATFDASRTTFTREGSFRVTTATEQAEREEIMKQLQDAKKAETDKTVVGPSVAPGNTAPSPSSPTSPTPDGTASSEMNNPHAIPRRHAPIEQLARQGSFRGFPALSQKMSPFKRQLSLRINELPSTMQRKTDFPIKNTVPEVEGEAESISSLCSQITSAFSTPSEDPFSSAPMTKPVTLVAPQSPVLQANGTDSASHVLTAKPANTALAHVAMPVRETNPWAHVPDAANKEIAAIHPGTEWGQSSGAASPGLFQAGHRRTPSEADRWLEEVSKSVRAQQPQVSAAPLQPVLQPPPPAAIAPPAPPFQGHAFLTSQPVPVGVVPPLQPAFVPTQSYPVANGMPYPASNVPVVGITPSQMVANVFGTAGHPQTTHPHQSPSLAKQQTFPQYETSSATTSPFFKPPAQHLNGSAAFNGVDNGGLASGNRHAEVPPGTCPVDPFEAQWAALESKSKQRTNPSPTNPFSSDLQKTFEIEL
Numb N + PTB domain (aa1-173): residues 1-173 of Q9QZS3
Numb with deletion of the N-terminus (aa1-25): residues 26-653 of Q9QZS3
Numb with deletion of the PTB domain (aa26-173) (Q9QZS3, form named): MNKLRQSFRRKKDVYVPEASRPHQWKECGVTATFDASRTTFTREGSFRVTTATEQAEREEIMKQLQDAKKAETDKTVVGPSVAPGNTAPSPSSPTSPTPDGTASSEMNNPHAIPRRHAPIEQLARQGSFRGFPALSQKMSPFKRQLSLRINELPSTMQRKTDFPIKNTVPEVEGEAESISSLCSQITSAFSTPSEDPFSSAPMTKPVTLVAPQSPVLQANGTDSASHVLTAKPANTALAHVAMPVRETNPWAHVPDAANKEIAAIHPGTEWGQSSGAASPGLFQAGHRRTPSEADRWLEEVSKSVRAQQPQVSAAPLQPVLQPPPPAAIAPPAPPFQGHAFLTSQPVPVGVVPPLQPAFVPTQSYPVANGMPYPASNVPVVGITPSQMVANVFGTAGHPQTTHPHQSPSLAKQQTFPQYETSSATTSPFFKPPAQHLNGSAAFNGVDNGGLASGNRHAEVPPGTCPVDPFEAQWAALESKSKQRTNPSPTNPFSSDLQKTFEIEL

One test deals with Numb-HA (UniProt Q9QZS3). Nature of the test: co-IP; 293 T cells transfected with Ptch1-EGFP and Numb-HA.
Test [1] addresses Numb with deletion of the PTB domain (aa26-173) (UniProt Q9QZS3). As to the kind of experiment: co-IP; Numb truncated proteins tested with Ptch1; cells, tags and the precipitated partner not told in the text (Supplementary Fig. 5c).
The target of test [2] is Numb N + PTB domain (aa1-173) (UniProt Q9QZS3). Described as above.
For test [3], the target named is Numb with deletion of the N-terminus (aa1-25) (UniProt Q9QZS3). The test is described as above.
The target of test [4] is endogenous Numb (mouse (endogenous in NIH3T3)) (UniProt Q9QZS3). As to the kind of experiment: co-IP; endogenous Numb immunoprecipitated from lysates of NIH3T3 cells treated with Shh; endogenous Ptch1 detected.

Results are given in words; binding and its absence hold for the method and conditions named. In cells and extracts the contact can be indirect. Some binding calls cover weakened binding; strength is not graded here. For some assays here: Tags and fused reporters may be left off the sequences shown.

B1: Ptch1-EGFP (receptor, UniProt Q61115 1-1434)
chain: MASAGNAAGALGRQAGGGRRRRTGGPHRAAPDRDYLHRPSYCDAAFALEQISKGKATGRKAPLWLRAKFQRLLFKLGCYIQKNCGKFLVVGLLIFGAFAVGLKAANLETNVEELWVEVGGRVSRELNYTRQKIGEEAMFNPQLMIQTPKEEGANVLTTEALLQHLDSALQASRVHVYMYNRQWKLEHLCYKSGELITETGYMDQIIEYLYPCLIITPLDCFWEGAKLQSGTAYLLGKPPLRWTNFDPLEFLEELKKINYQVDSWEEMLNKAEVGHGYMDRPCLNPADPDCPATAPNKNSTKPLDVALVLNGGCQGLSRKYMHWQEELIVGGTVKNATGKLVSAHALQTMFQLMTPKQMYEHFRGYDYVSHINWNEDRAAAILEAWQRTYVEVVHQSVAPNSTQKVLPFTTTTLDDILKSFSDVSVIRVASGYLLMLAYACLTMLRWDCSKSQGAVGLAGVLLVALSVAAGLGLCSLIGISFNAATTQVLPFLALGVGVDDVFLLAHAFSETGQNKRIPFEDRTGECLKRTGASVALTSISNVTAFFMAALIPIPALRAFSLQAAVVVVFNFAMVLLIFPAILSMDLYRREDRRLDIFCCFTSPCVSRVIQVEPQAYTEPHSNTRYSPPPPYTSHSFAHETHITMQSTVQLRTEYDPHTHVYYTTAEPRSEISVQPVTVTQDNLSCQSPESTSSTRDLLSQFSDSSLHCLEPPCTKWTLSSFAEKHYAPFLLKPKAKVVVILLFLGLLGVSLYGTTRVRDGLDLTDIVPRETREYDFIAAQFKYFSFYNMYIVTQKADYPNIQHLLYDLHKSFSNVKYVMLEENKQLPQMWLHYFRDWLQGLQDAFDSDWETGRIMPNNYKNGSDDGVLAYKLLVQTGSRDKPIDISQLTKQRLVDADGIINPSAFYIYLTAWVSNDPVAYAASQANIRPHRPEWVHDKADYMPETRLRIPAAEPIEYAQFPFYLNGLRDTSDFVEAIEKVRVICNNYTSLGLSSYPNGYPFLFWEQYISLRHWLLLSISVVLACTFLVCAVFLLNPWTAGIIVMVLALMTVELFGMMGLIGIKLSAVPVVILIASVGIGVEFTVHVALAFLTAIGDKNHRAMLALEHMFAPVLDGAVSTLLGVLMLAGSEFDFIVRYFFAVLAILTVLGVLNGLVLLPVLLSFFGPCPEVSPANGLNRLPTPSPEPPPSVVRFAVPPGHTNNGSDSSDSEYSSQTTVSGISEELRQYEAQQGAGGPAHQVIVEATENPVFARSTVVHPDSRHQPPLTPRQQPHLDSGSLSPGRQGQQPRRDPPREGLRPPPYRPRRDAFEISTEGHSGPSNRDRSGPRGARSHNPRNPTSTAMGSSVPSYCQPITTVTASASVTVAVHPPPGPGRNPRGGPCPGYESYPETDHGVFEDPHVPFHVRCERRDSKVEVIELQDVECEERPWGSSSN
On to B1, for which the binding result with Numb-HA was “binds”; in test [1], “no binding”; in test [2], “binds”; in test [3], “no binding”.

B2: endogenous Ptch1 (receptor, UniProt Q61115 1-1434)
chain: MASAGNAAGALGRQAGGGRRRRTGGPHRAAPDRDYLHRPSYCDAAFALEQISKGKATGRKAPLWLRAKFQRLLFKLGCYIQKNCGKFLVVGLLIFGAFAVGLKAANLETNVEELWVEVGGRVSRELNYTRQKIGEEAMFNPQLMIQTPKEEGANVLTTEALLQHLDSALQASRVHVYMYNRQWKLEHLCYKSGELITETGYMDQIIEYLYPCLIITPLDCFWEGAKLQSGTAYLLGKPPLRWTNFDPLEFLEELKKINYQVDSWEEMLNKAEVGHGYMDRPCLNPADPDCPATAPNKNSTKPLDVALVLNGGCQGLSRKYMHWQEELIVGGTVKNATGKLVSAHALQTMFQLMTPKQMYEHFRGYDYVSHINWNEDRAAAILEAWQRTYVEVVHQSVAPNSTQKVLPFTTTTLDDILKSFSDVSVIRVASGYLLMLAYACLTMLRWDCSKSQGAVGLAGVLLVALSVAAGLGLCSLIGISFNAATTQVLPFLALGVGVDDVFLLAHAFSETGQNKRIPFEDRTGECLKRTGASVALTSISNVTAFFMAALIPIPALRAFSLQAAVVVVFNFAMVLLIFPAILSMDLYRREDRRLDIFCCFTSPCVSRVIQVEPQAYTEPHSNTRYSPPPPYTSHSFAHETHITMQSTVQLRTEYDPHTHVYYTTAEPRSEISVQPVTVTQDNLSCQSPESTSSTRDLLSQFSDSSLHCLEPPCTKWTLSSFAEKHYAPFLLKPKAKVVVILLFLGLLGVSLYGTTRVRDGLDLTDIVPRETREYDFIAAQFKYFSFYNMYIVTQKADYPNIQHLLYDLHKSFSNVKYVMLEENKQLPQMWLHYFRDWLQGLQDAFDSDWETGRIMPNNYKNGSDDGVLAYKLLVQTGSRDKPIDISQLTKQRLVDADGIINPSAFYIYLTAWVSNDPVAYAASQANIRPHRPEWVHDKADYMPETRLRIPAAEPIEYAQFPFYLNGLRDTSDFVEAIEKVRVICNNYTSLGLSSYPNGYPFLFWEQYISLRHWLLLSISVVLACTFLVCAVFLLNPWTAGIIVMVLALMTVELFGMMGLIGIKLSAVPVVILIASVGIGVEFTVHVALAFLTAIGDKNHRAMLALEHMFAPVLDGAVSTLLGVLMLAGSEFDFIVRYFFAVLAILTVLGVLNGLVLLPVLLSFFGPCPEVSPANGLNRLPTPSPEPPPSVVRFAVPPGHTNNGSDSSDSEYSSQTTVSGISEELRQYEAQQGAGGPAHQVIVEATENPVFARSTVVHPDSRHQPPLTPRQQPHLDSGSLSPGRQGQQPRRDPPREGLRPPPYRPRRDAFEISTEGHSGPSNRDRSGPRGARSHNPRNPTSTAMGSSVPSYCQPITTVTASASVTVAVHPPPGPGRNPRGGPCPGYESYPETDHGVFEDPHVPFHVRCERRDSKVEVIELQDVECEERPWGSSSN
Consider B2, for which the binding entry in test [4] is “binds”.
